In all, about 33,000 sequences were measured (“E-score (-0.5 to 0.5)”: median about -0.035, highest 2% from about 0.35 on). The list shows a part of the results.
Biological target: T1, Pdr3 (UniProt P33200)
T1 sequence: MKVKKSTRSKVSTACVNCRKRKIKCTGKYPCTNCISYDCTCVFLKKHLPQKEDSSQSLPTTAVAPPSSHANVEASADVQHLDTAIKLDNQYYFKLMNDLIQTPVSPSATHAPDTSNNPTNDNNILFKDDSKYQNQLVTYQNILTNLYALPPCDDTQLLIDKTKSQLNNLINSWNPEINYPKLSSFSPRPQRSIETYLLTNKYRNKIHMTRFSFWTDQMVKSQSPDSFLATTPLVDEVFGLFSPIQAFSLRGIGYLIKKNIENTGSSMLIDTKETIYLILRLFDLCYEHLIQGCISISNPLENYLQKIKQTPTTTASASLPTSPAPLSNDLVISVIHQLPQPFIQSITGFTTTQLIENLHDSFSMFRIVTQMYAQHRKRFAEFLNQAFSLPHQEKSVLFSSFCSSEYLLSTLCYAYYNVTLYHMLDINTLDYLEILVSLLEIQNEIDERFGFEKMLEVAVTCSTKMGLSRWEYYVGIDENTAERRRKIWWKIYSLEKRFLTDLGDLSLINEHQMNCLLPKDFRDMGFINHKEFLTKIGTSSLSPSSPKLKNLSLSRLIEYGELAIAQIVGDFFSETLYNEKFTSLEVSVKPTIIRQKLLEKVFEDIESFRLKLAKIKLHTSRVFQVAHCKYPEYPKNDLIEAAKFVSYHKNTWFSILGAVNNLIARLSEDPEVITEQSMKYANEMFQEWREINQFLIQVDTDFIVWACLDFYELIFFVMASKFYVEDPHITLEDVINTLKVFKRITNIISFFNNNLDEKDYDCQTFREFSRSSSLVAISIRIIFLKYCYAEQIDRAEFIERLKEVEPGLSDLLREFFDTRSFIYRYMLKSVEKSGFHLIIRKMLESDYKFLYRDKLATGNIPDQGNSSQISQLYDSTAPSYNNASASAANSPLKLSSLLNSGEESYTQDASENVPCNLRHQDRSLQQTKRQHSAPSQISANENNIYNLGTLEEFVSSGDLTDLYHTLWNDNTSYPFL
Assay: PBM E-score (8-mer binding enrichment) (E-score (-0.5 to 0.5)); higher = stronger / more preferred TF binding; most listed sequences are background and not binding sites
Settings: protein concentration: 200 nM; construct: GST-full length
Method in brief: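 Yeast transcription factors carrying a GST tag, as full-length proteins or DNA-binding domains, were produced by PURExpress in vitro transcription/translation. About 100-200 nM protein was applied to universal all-10-mer Agilent arrays, double-stranded by primer extension on fresh or once-stripped slides. Bound protein was detected with fluorescent anti-GST, and scans were normalised with masliner. The Universal PBM Analysis Suite gave each ungapped eight-base word, pooled with its reverse complement, an E-score, a modified Wilcoxon-Mann-Whitney statistic.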

Which “PBM E-score” value does the source give for GGCTGACA here?
Its value is 0.122.

With CATTCGGC as the sequence, how does the “PBM E-score” value read?
The value was 0.145.

How did the “PBM E-score” value turn out when AACGGGTC was run?
The value was 0.113.

AGCAAGAT was tested. Which “PBM E-score” value did it give?
Its value is 0.0287.

How did the “PBM E-score” value turn out when GTTTTGTA was run?
Its value is 0.0261.

Which “PBM E-score” value does the source give for GACGCGAC here?
The value was -0.0793.

With CTCCCTTC as the sequence, how does the “PBM E-score” value read?
Its value is -0.1.

Which “PBM E-score” value does the source give for CTCTTGAC here?
Its value is -0.139.

How did the “PBM E-score” value turn out when AAAGCCCG was run?
The value was 0.184.

With AACATTCG as the sequence, how does the “PBM E-score” value read?
Its value is -0.0545.

AATTACCG was tested. Which “PBM E-score” value did it give?
Its value is 0.115.

How did the “PBM E-score” value turn out when GTTCAGAA was run?
Its value is -0.022.

AACAAGAA was tested. Which “PBM E-score” value did it give?
Its value is -0.113.

Which “PBM E-score” value does the source give for AGTGGATG here?
Its value is -0.0836.

ACAGACCC was tested. Which “PBM E-score” value did it give?
The value was 0.0146.

TACCTGAA was tested. Which “PBM E-score” value did it give?
The value was -0.141.

With AAAGGTGG as the sequence, how does the “PBM E-score” value read?
The value was -0.0649.

Which “PBM E-score” value does the source give for ACGGCCTA here?
Its value is 0.131.

Which “PBM E-score” value does the source give for AGATGGCA here?
The value was 0.0745.

ACCTGAGC was tested. Which “PBM E-score” value did it give?
The value was -0.039.

Which “PBM E-score” value does the source give for ACGATTAA here?
Its value is 0.0126.

With ACTCAGAT as the sequence, how does the “PBM E-score” value read?
The value was -0.0813.

With TCCGCGCA as the sequence, how does the “PBM E-score” value read?
The value was 0.397.

AACTATCA was tested. Which “PBM E-score” value did it give?
The value was 0.02.

Which “PBM E-score” value does the source give for CTGCGCGC here?
Its value is 0.229.

How did the “PBM E-score” value turn out when GTATTACA was run?
Its value is -0.0393.

How did the “PBM E-score” value turn out when CGGTGCCA was run?
Its value is -0.115.

ATTCTTTG was tested. Which “PBM E-score” value did it give?
Its value is -0.0525.

How did the “PBM E-score” value turn out when ATTAAGGA was run?
Its value is -0.00828.

How did the “PBM E-score” value turn out when GCCATTCA was run?
The value was 0.118.

For AGCTGCGA, which “PBM E-score” value is on record?
The value was -0.00197.

Which “PBM E-score” value does the source give for GCTGATGA here?
The value was -0.0355.

How did the “PBM E-score” value turn out when CTAGTGAA was run?
The value was -0.117.

CCAGGGAC was tested. Which “PBM E-score” value did it give?
The value was -0.129.

With ATGTCTTC as the sequence, how does the “PBM E-score” value read?
The value was -0.231.

For ACCCAAAC, which “PBM E-score” value is on record?
Its value is 0.186.

How did the “PBM E-score” value turn out when ATCCCCAC was run?
The value was 0.133.

For CAACAGCA, which “PBM E-score” value is on record?
The value was 0.0291.

With CAAACGAG as the sequence, how does the “PBM E-score” value read?
The value was -0.131.

Which “PBM E-score” value does the source give for ATATTGAA here?
The value was -0.0397.

Which “PBM E-score” value does the source give for AATCATAG here?
Its value is 0.0594.

For GACCGGAC, which “PBM E-score” value is on record?
Its value is 0.28.

Which “PBM E-score” value does the source give for CTCTAATC here?
The value was -0.128.

Which “PBM E-score” value does the source give for CACGAGTC here?
The value was -0.226.

For ACCTTCGC, which “PBM E-score” value is on record?
Its value is -0.0589.

With CAGCGGAG as the sequence, how does the “PBM E-score” value read?
The value was 0.274.

CAAAGTGG was tested. Which “PBM E-score” value did it give?
Its value is -0.215.

How did the “PBM E-score” value turn out when AGTACGTA was run?
Its value is -0.0984.

How did the “PBM E-score” value turn out when GGTAGACC was run?
Its value is 0.0232.

GTGACCGA was tested. Which “PBM E-score” value did it give?
Its value is -0.0949.

For GACCGACC, which “PBM E-score” value is on record?
The value was 0.0504.

AAGAGGCC was tested. Which “PBM E-score” value did it give?
Its value is 0.00696.

With AGCGCCCT as the sequence, how does the “PBM E-score” value read?
The value was 0.0102.

For GTTCGTGA, which “PBM E-score” value is on record?
Its value is -0.187.

How did the “PBM E-score” value turn out when CAGGTCCA was run?
Its value is -0.221.

With CTTGCGCC as the sequence, how does the “PBM E-score” value read?
The value was -0.0849.

Which “PBM E-score” value does the source give for CACCACTG here?
Its value is -0.268.

With ATCGACGA as the sequence, how does the “PBM E-score” value read?
Its value is 0.128.

How did the “PBM E-score” value turn out when CCGACTAC was run?
The value was 0.0579.

Which “PBM E-score” value does the source give for ACGAAGCG here?
The value was -0.208.

With ACCGAACG as the sequence, how does the “PBM E-score” value read?
The value was 0.0972.

For GCGCGAAA, which “PBM E-score” value is on record?
Its value is 0.143.

With GTAAAAAC as the sequence, how does the “PBM E-score” value read?
Its value is -0.132.

GCTCCCTA was tested. Which “PBM E-score” value did it give?
Its value is -0.242.

How did the “PBM E-score” value turn out when CCTAAACG was run?
The value was -0.0936.

How did the “PBM E-score” value turn out when GCTCGGAA was run?
The value was 0.413.

For AGTTTTAA, which “PBM E-score” value is on record?
Its value is -0.0741.

Which “PBM E-score” value does the source give for AGGCTACG here?
The value was -0.383.

Which “PBM E-score” value does the source give for GACTTCGC here?
Its value is 0.132.

With CTGTTTGA as the sequence, how does the “PBM E-score” value read?
Its value is -0.125.

CGCTGTTC was tested. Which “PBM E-score” value did it give?
The value was -0.109.

Which “PBM E-score” value does the source give for AATGTAGG here?
The value was -0.174.

CCCTAGAC was tested. Which “PBM E-score” value did it give?
Its value is -0.258.

AGTCCCTG was tested. Which “PBM E-score” value did it give?
Its value is -0.273.

For AGCTGTGG, which “PBM E-score” value is on record?
The value was -0.25.

For AAGAGTAT, which “PBM E-score” value is on record?
Its value is -0.289.

With AGCACAGC as the sequence, how does the “PBM E-score” value read?
The value was 0.0216.

How did the “PBM E-score” value turn out when AGGCCGAC was run?
The value was 0.164.

With TTGGCCAA as the sequence, how does the “PBM E-score” value read?
Its value is -0.0848.

TAACTCTA was tested. Which “PBM E-score” value did it give?
Its value is -0.213.

GCGCTAGA was tested. Which “PBM E-score” value did it give?
Its value is -0.135.

With CAGAACAC as the sequence, how does the “PBM E-score” value read?
The value was 0.0469.

How did the “PBM E-score” value turn out when TGGCTTAA was run?
The value was 0.00239.

How did the “PBM E-score” value turn out when AAGGTTCA was run?
The value was -0.0157.

For TCGCTAGA, which “PBM E-score” value is on record?
Its value is -0.125.

Which “PBM E-score” value does the source give for ATGGATCA here?
Its value is -0.0186.

With AAGCCTGG as the sequence, how does the “PBM E-score” value read?
Its value is -0.102.

Which “PBM E-score” value does the source give for CCTGTGGC here?
The value was -0.164.

CAAATCCC was tested. Which “PBM E-score” value did it give?
Its value is 0.093.

CTGTCCGA was tested. Which “PBM E-score” value did it give?
Its value is 0.247.

With CACAAGAC as the sequence, how does the “PBM E-score” value read?
The value was -0.199.

For AACAGGCT, which “PBM E-score” value is on record?
The value was -0.127.

How did the “PBM E-score” value turn out when CATATCCA was run?
The value was -0.167.

For CTGGTACC, which “PBM E-score” value is on record?
Its value is -0.0822.

From the supplement of paper PMC3334620
